Experimental data as given in the RNAGym collection of RNA variant scans (doi:10.7554/elife.90254).
The source gives no read counts; variants with many changes may rest on few reads.

B1: LINE1-full (parent)
chain: UACGUAGGUGGUUUUCCCCUGAUAGUGCUAAGGGGGCCUGGAAGUUUGGACUGGGCAGAGCUCAACACAGCGUGGCAAAGUGGCUGUGGCUAGACUGCCUCUCUGGAUUCCUCGUCACUCAGCAGGGCAUCUCUGAGAGAAAUGCC

Variants of: B1
Experiment: self-cleavage, relative activity (ratio to wild type); higher = more cleavage; in vitro, sequencing; the parent is a self-cleaving ribozyme

Variant	self-cleavage
UACGUAGGUGGUUUUCCCCUGAUAGUGCUAAGGGGGCCUGGAAGUUUGGACUGGGCAGAGCUCAACACGGCGAGGCAGAGUGGCUGAGGCUAGACUGCCUCUCUGGAUUCCUCGUCACUCAGCAGGGCAUCUCUGAGAGAAAUGCC	0
UACGUAGGUGGUUCUCCCCUGAUAGUGCUAAGGGGGCCUGGAAGUUUGGACUGGGCGGAGCUCAGCACAGCGUGGCAAAGUGGCUGUGGCUAGACUGCCUCUCUGGAUUCCUCGCCACUCAGCAGGGCAUCUCUGAGAGAAAAGCC	0
UACGUAGGUGGUUUUCCCCUGAUAGUGCUAAGGGGGCCCGGAAGUUUGGACUGGGCAGAGCUCAACACAGCGUGGCAAAGUGGCUGAGGCUAGACUGCCUCUCUUGAUUCCUCGUCGCUCAGCAGGGCAUCUCUGAGAGAAAUGCC	0
UACGUAGGUGGUUUUCCCCUGAUAGUGCUAAGGGGGCCUGGAAGCUUGGACUGGGCAGAGCUCAACACAGCCUGGCUGAGUGGCUGUGGCUAGACUGCCUCUCUGGGUUCCUCGUCACUCAGCAGGGCAUCUCUGAGAUAAAUGCC	1.25
UACGUAGGUGGUUUACCCCUGAUAGUGCUAAGGGGGCCUGGAAGUUUGGACUGGGCAGAGCUCGACACAGCGUGGCAAGGUAGCUGUGGCUAGACUGCCUCUCUGGAUUCCUCGUCACUCAGCAGGGCAUCUCUGAGAGAAAUGCC	0.08
UACGUAGGUGGUUUUCCCCUGACAGGGCUAAGGGGGCCUGGAAGUUUGGACUGGGCAGAGCUCAACACAGCGUGGCAAAGUGGCUGUGGCUAGACUGCCUCUCUGGAUUCCUCGUCACUCAGCAGGGCAUCUCGGAGAGUAAUGCC	0.94
UACGUAGGUGGUUCUCCCCUGUUAGUGCUAAGGGGGCCUGGAAGUUUGGACUGGGCAGAGCUCAACACAGCGUGGCAAAGUGGCUGUGGCUAGACUGCCUCUCCGGAUUCCUCGUCACUCAGCAGGGCACCUCUGAGAGAAAUGCC	1.93
UACGUAGGUGGUUUUCCCCUGAUAGUGCCAAGGGGGCCUGGAAGUUUGGACUGGCCUGAGCUCAGCACAGCGUGGCAAAGUGGCUGUGGCUAGACUGCCUCUCUGGAUUCCUCGUCACUCAGCAGGGCAUCUCUGAGAGAAAUGCC	0
UACGUAGGUGGUUUUCCCCUGAUAGUGCUAAGGGGGCCUGGAAGUUUGGACUGGGCAGAGCUCAACACAGCGUGGCAAAGUGGCUGUGGCUAGACUGCCUCUCUGGAUUCCUCGUCACUCAGCAGGGCAUCUCCGAGGGGAAUGCC	1.45
UACGUAGGUGGUCUUCCCCUGAUAGUGCUAAGGGGGCCUGGAAGUUUGGACUGGGCAGAGCUCAACACAGCGUGGCAAAGUGGCUGUGGCUAGACUGCCUCUCUGGGUUCCUCGUCACUCAGCGGGGCAUCUCUGAGAGAAAUGCC	1.84
UACGUAGGUGGUUUUCCCCUGAUAAUGCUAAGGGGGCCUGGAAGUUUGGACUGGGCAGAGCUCAACACAGCGUGGCAAAGUGGCUGUGGCUAGACUGCCUCUCUGGGUUCCUCGCCACUCAGCAGGGCAUCUCUGAGAGAAAUGCC	1.84
UACGUAGGUGGUUUUCCCCUGAUAGUGCUAAGGGGGCCUGGAAGUCUGGACUGGGCAGAGCUCAACACAGCGUGGCAAAGUGGCUGUGGCUAGACUGCCUCUCUGGAUUCCUCGUCACUCAGCAGGGCUUCUCUGAGGGAAGUGCC	1.92
CAUGUAGGUGGUUUUCCCCUGAUAGUGCUAAGGGGGCCUGGAAGUUUGGACUGGGCAGAGCUCAACACAGCGUGGCAAAGUGGCUGUGGCUAGACUGCCCCUCUGGAUUCCUCGUCACUCAGCAGGGCAUCUCUGAGAGAAAUGCC	0.31
UACGUAGGUGGUUUUCCCCUGAUAGUGCUAUGGGGGCCUGGAAGUUUGGACUGGGCAGUGCUCAACACAGCGAGGCAAAGUGGCCGUGGCUAGACUGCCCCUCUGGAUUCCCCGUCACUCAGCAGGGCAUCUCUGAGAGAAAUGCC	0
UACGUACGUGGUUUUCCCCUGAUAGUGCUAAGGGGGCCUGGAAGUUUGGACUGGGCAGAGCUCAACACAGCGUGGCAAAGUGGCUGUGGCUAGGCUGCCUCUCAGGAUUCCUCGUCACUCAGCAGGGCAUCUCUGAGGGAAAUGCC	0.75
UACGUAGGUGGUUUUCCCCUGAUAGUGCUAAGGGGGCCUGGAAGUUUGGACUGGGCAGAGCUCAGCACAGCGUGGCAAAGUGGCUGUGGCUAGACUGCCUCUCUGGAUUCCACGUCACUCAGCAGGGCAUCUCUGAGAGAAAUGCU	0.21
UACGUAGGUGGUUUUCCCCUGAUAGUGCUAAGGGGGCCUGGAAGUUUGGACUGGGCAGAGCUCAACCCAGCGUGGCAAAGUGGCUGUGGCUAGACUGCCUCUCUGGAUUCCUCGUCACUCAGCAGGGCACCUCUGAGAGAAGUGCC	0.32
UAUGUAGGUGGUUUUCCCCUGAUAGUGCUAAGGGGGCCUGGAAGUUUGGACUGGGCAGAGCUCAACACAGCGUGGCAGAGUGGCUGUGGCUAGACUGCCUCUCUGGGUUCCUCGUCACUCAGCAGGGCAUCUCUGAGAGAGAUGCC	1.72
UACGUAGGUGGUUUUCCCCUGUUAGUGUUAAGGGGGCCUGGAAGUUUGGACUGGGCAGAGCCCAACACAGCGUGGCAAAGUGGCUGUGGCUAGACUGCCUCUCUGGAUUCCUCGUCACUCAGCAGGGCGUCUCUGAGAGGAAUGCC	0.05
